Results reported in ChEMBL document CHEMBL4888484, “Replenishing the malaria drug discovery pipeline: Screening and hit evaluation of the MMV Hit Generation Library 1 (HGL1) against asexual blood stage Plasmodium falciparum ,using a nano luciferase reporter read-out” (2022).
About 540 (0.36%) of roughly 150,000 compounds showed an effect of 50% or more. This is one part of the list.

These molecules were tested on Plasmodium falciparum (assay: Primary screen in NF54 nanoGlo assay, in single point, at 2uM, 72h; a lower Z score goes with more inhibition). Details: timepoint 72 hour.
Type: functional, Erythrocyte

Row | SMILES | % Inhibition | Z score
1 | Clc1cnccc1NCCCN1CCOCC1 | 5% | -0.97
2 | C[C@H](NC(=O)c1cncc(F)c1)c1ncnn1C | -2% | 0.3
3 | Cc1nnc(-c2ccc3ccn(CC(=O)Nc4ncccc4C)c3c2)o1 | 2% | -0.21
4 | CCCC(C(=O)N(C)C1CCS(=O)(=O)C1)N1CCN(C(=O)OC(C)(C)C)CC1 (stereo unspecified) | -1% | 0.13
5 | O[C@H]1CN(Cc2ncc[nH]2)C[C@@H]1Cc1ccccc1 | -14% | 2.13
6 | O=C(N[C@H]1CCCCNC1=O)c1cc(Cl)c[nH]1 | 10% | -1.8
7 | CCn1cnc2c(N3CCC[C@H](CC(C)(C)C(N)=O)C3)ncnc21 | 8% | -1.51
8 | CCN1C(=O)C2(CCN(C(=O)c3ccoc3)CC2)C[C@H]1C(=O)NC1CCCC1 | -9% | 1.18
9 | COCCCN(CCC(=O)NCC(C)C)C(=O)c1ccoc1 | 3% | -0.67
10 | Cc1nc(C)c(CN2CCN(c3ncccn3)CC2)s1 | -9% | 1.37
11 | CC(=O)N1C[C@H](NC(=O)c2[nH]nc(C)c2Cl)[C@@H](C2CC2)C1 | 9% | -1.17
12 | Cc1noc(NS(=O)(=O)c2ccc3c(c2)CCCC3)c1C | -7% | 0.96
13 | CC1=Nc2ccccc2C12CCN(C(=O)[C@H]1CCC(=O)N1C)CC2 | -6% | 1.21
14 | COc1cc(C(=O)O[C@H]2CCCN(c3ccnc(N)n3)C2)ccc1C | -9% | 1.09
15 | COC(=O)C1CC2CCCCC2N1S(=O)(=O)N1CCOCC1 (stereo unspecified) | -14% | 2.21
16 | Cc1ccc(-c2nc3cnccn3c2Nc2ccc3c(c2)OCCO3)o1 | -21% | 3.21
17 | Cc1cc(C)c(C(=O)N2CC3CCCC3C2)c(=O)[nH]1 (stereo unspecified) | 32% | -3.65
18 | Cc1nc(C2(c3ccc(Cl)cc3)CCC2)n(CCCO)n1 | -22% | 2.84
19 | COc1ccc(C(=O)N2CCc3[nH]c(-c4cn[nH]c4)nc3C2)c(F)c1F | 0% | 0.04
20 | Cc1ccc2c(c1)N(C)C(=O)c1cc(NC(=O)c3c(F)cccc3F)ccc1O2 | -23% | 2.68
21 | Cc1ccc(NC(=O)[C@@H]2CC(=O)N=C(N3CCOCC3)N2)cc1Cl | 37% | -0.83

Row | SMILES | % Inhibition | Z score
22 | CC(C)CN(C(=O)c1ocnc1C(F)F)[C@@H](C)c1ccccc1Cl | -9% | 1.35
23 | COc1ccccc1Oc1c[nH]nc1-c1ccc(OCc2ccccc2)cc1O | -17% | 2.49
24 | CCc1cccc2sc(NC[C@H]3CCCO3)nc12 | 12% | -1.49
25 | CCOc1ccccc1COC(=O)c1ccnc(C)n1 | -10% | 1.08
26 | COc1cc(C2CN(C(=O)c3cccc(Cl)c3)CC2C(=O)N2CCCCC2)cc(OC)c1OC (stereo unspecified) | -8% | 1.31
27 | CCCc1noc(C(C)NCC2CCOC2c2cnn(C)c2)n1 (stereo unspecified) | -15% | 1.25
28 | CCN(C(=O)c1cc(C)c(C)[nH]c1=O)[C@H]1COC[C@@H]1O | -3% | 0.54
29 | Cc1n[nH]c(C)c1NC(=O)N1CCC[C@]1(C)Cc1cccc(F)c1 | -4% | 0.48
30 | C[C@H]1C(=O)N(c2ccc(-c3ccccc3)cc2)CCN1Cc1ccc(F)cc1F | -4% | 0.46
31 | O=S(=O)(c1ccc(-c2csc(N3N=C(c4ccccc4)C[C@H]3c3ccccc3)n2)cc1)N1CCCC1 | -7% | 1.28
32 | O=C(NCCc1noc2ccccc12)c1cnn(C2CC2)c1 | 3% | -0.65
33 | CO[C@H]1CCCN(S(=O)(=O)CC2CN(C(=O)OC(C)(C)C)C2)C1 | 9% | -1.01
34 | COc1ccc(-n2nc3nc(NCC(C)C)nc(-c4cccc(F)c4)c3c2N)cc1 | -10% | 1.3
35 | CC(C)CN(CC(=O)N1CCOCC1)c1cccc(O)c1 | 4% | -0.59
36 | O=C(Nc1ccc2c(c1)cc(C(=O)NCc1ccco1)n2Cc1ccc(F)cc1)c1ccco1 | -12% | 2.19
37 | Cn1cc(C2C[S+]([O-])CCN2CC(=O)Nc2ccc(Cl)cn2)cn1 (stereo unspecified) | -5% | 0.55
38 | CCOc1ccc(C(=O)N2Cc3cnc(CC(C)C)nc3C2)cc1OCC | 1% | -0.16
39 | Cc1noc2nc(C3CC3)cc(-c3nc(-c4ccncc4)no3)c12 | 16% | -2.22
40 | C[C@H]1CCOCCN1C(=O)Nc1ccccc1N1CCCC1 | -14% | 1.65
41 | c1ccc(CCCO[C@H]2CCN(c3ccc4nnnn4n3)C2)cc1 | -3% | 0.57
42 | O=C(CS(=O)(=O)Cc1ccccc1C1CC1)Nc1ccccc1 | -3% | 0.31

Row | SMILES | % Inhibition | Z score
43 | Cc1ccc(-c2ccc(C(=O)N3CCCN(C(=O)C(F)(F)F)CC3)cc2)o1 | -17% | 2.19
44 | O=C(c1cnc(-c2cccs2)nc1)N1CCN(CCO)C[C@H](O)C1 | -11% | 1.02
45 | CC(C)(C)OC(=O)N1CCC[C@](C)(C(=O)Nc2cccc(C(=O)NC3CC3)c2)C1 | -19% | 1.92
46 | CCOC[C@@H](O)CN(Cc1c(C)nn(-c2ccccc2)c1Oc1cccc(C)c1)C1CC1 | 33% | -4.48
47 | Cc1csc(NC(=O)CN2CC[C@H](O)C2)n1 | -13% | 1.91
48 | Cc1noc([C@H](C)NC(=O)Cc2ccc3[nH]c(C)nc3c2)n1 | 0% | 0.01
49 | CN1CCCC[C@@H]1CN(C)S(=O)(=O)CC1CCCC1 | -14% | 1.27
50 | CCCC[C@H](NC(=O)c1ccc(-c2cnc(=O)[nH]c2)cc1)C(N)=O | 0% | 0
51 | Cc1cc(C(=O)NCc2ccc(-c3cnn(C)c3)nc2)c(C)o1 | 10% | -1.27
52 | Cc1cccc(S(=O)(=O)N2CCC(n3cnnc3C(C)C)CC2)c1 | -8% | 1.32
53 | Cc1cc(C(=O)N2CCN(Cc3nc(-c4cccs4)no3)CC2)on1 | -4% | 0.5
54 | COc1ccc(CN2C(=O)N[C@@H](CC(=O)Nc3nccs3)C2=O)cc1 | -2% | 0.32
55 | OCc1cccc(N(Cc2ncccn2)C2Cc3ccccc3C2)c1 | -16% | 1.89
56 | CNC(=O)CC1CCN(C(=O)[C@]2(C)CCOc3ccccc32)CC1 | 1% | -0.14
57 | COc1ccc(CNC(=O)[C@@H](C)NC(=O)c2cccnc2)cc1OC | -6% | 0.74
58 | COCCn1ccc(NC(=O)NC2CCC(C)(C)CC2)n1 | -6% | 0.64
59 | O=C(Nc1cc(Cl)ccc1Oc1ccc(Br)c2ccccc12)c1cc(Cl)cc(Cl)c1O | -4% | 0.53
60 | Cn1c(=O)sc2cc(S(=O)(=O)N3CCN(c4ccc(Cl)cc4)CC3)ccc21 | -7% | 1.08
61 | NC[C@H]1CN(Cc2cccn2-c2ccc(Cl)cn2)CCO1 | -4% | 0.5
62 | CN(CC[C@H]1CCCCN1C)Cc1cccc(C#N)c1 | 7% | -0.94
63 | Cc1oc(C#N)cc1C(=O)N1CC(C)CC1c1cccnc1 (stereo unspecified) | 6% | -0.66

Row | SMILES | % Inhibition | Z score
64 | Cc1noc2nc(C3CC3)cc(C(=O)Nc3ccc4c(c3)OCCO4)c12 | 1% | -0.13
65 | O=C(CC1CC(c2ccccc2)C1)N1CCC(CCCO)CC1 (stereo unspecified) | -13% | 1.72
66 | COCCNC(=O)[C@H]1CCCN(S(=O)(=O)c2ccc3c(c2)nnn3C(C)C)C1 | -20% | 1.77
67 | Cc1ccc(-c2ccc3nn(Cc4ccc(F)cc4Cl)c(=O)n3n2)cc1C | -12% | 1.55
68 | O=C(c1ccc2c(c1)OCO2)N1CCC2(CC1)OC[C@@H](C(=O)N1CCOCC1)N2C(=O)c1ccc(F)cc1 | -1% | 0.15
69 | O=C(NCc1scnc1-c1ccccc1)c1ccon1 | 5% | -0.75
70 | CCCn1cc(N[C@@H](C)C(=O)NC2CC2)cn1 | -2% | 0.18
71 | O=C(O)c1ccc(N2CCC(N3CCCCC3)CC2)c(NS(=O)(=O)c2cccc(F)c2)c1 | -15% | 1.44
72 | CCc1ccc(CN2CCN(S(=O)(=O)Cc3ccon3)CC2)o1 | 17% | -1.71
73 | O=C(NC1CCCC1)c1cc2c(Cl)ccc3c2n1CCO3 | 33% | -4.75
74 | Clc1ccccc1Cn1cc(-c2nc(-c3ccc4[nH]cnc4c3)no2)nn1 | -9% | 1.27
75 | CC(C)c1ccc(C(C)(C)C)cc1S(N)(=O)=O | -10% | 1.29
76 | COc1cc2c(cc1CN1CCC[C@H]1c1ccco1)OCCCO2 | -23% | 2.51
77 | O=S(=O)(c1cc(Cl)c(Br)cc1Cl)N(CCO)CCO | -6% | 0.57
78 | Cc1ncn(-c2cc(NCCNC(=O)c3cnccn3)ncn2)c1C | -15% | 2.16
79 | COc1cc2c(cc1OC)CN(C(=O)CN(C)[C@@H](C)c1ccccc1F)CC2 | 2% | -0.18
80 | CC(C)CN1CCC(N[C@H]2CCc3c(O)cccc32)CC1 | 10% | -0.87
81 | COC[C@H](C)N(Cc1cc(F)ccc1F)C(=O)c1c[nH]nc1-n1cnnn1 | -12% | 1.76
82 | CC(C)c1noc(-c2nc(-c3ccc4c(c3)OCO4)no2)n1 | -7% | 0.63
83 | COc1cccc(C(c2c(C)nn(-c3ccccc3)c2O)c2c(C)nn(-c3ccccc3)c2O)c1OC | -22% | 2.62
